Assay results: PubChem BioAssay AID493208 (National Center for Advancing Translational Sciences (NCATS), 2011)
In all, about 44,000 compounds went through this assay and about 340 (0.77%) were called active. Inconclusive results (about 5%) are left out. Calls follow the shape of the dose curve; as a rule, active = well fitted inhibition curve with a large enough effect; inconclusive = small, poorly fitted or top-dose-only effect; inactive = flat fitted curve, though single readings scatter. Some of the results follow.

Assay: Acumen qHTS Assay for Inhibitors of the mTORC1 Signaling Pathway in MEF (Tsc2-/-, p53-/-) Cells: Sytravon;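 also: plate controls were DMSO for no effect and rapamycin for full effect; nearly all actives have a fitted effect of over 50% in size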
Settings: phospho-rpS6 immunofluorescence/PI, 24 h; series mostly up to 38.3 µM; activity change, negative = inhibition: at the top concentration
Method in brief: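 Plate MEFs (Tsc2-/-, p53-/-, empty vector) in DMEM/10% FBS; after 24 h add compound, incubate 24 h at 37 degree Celsius; fix in PFA/TX-100, block, stain phospho-rpS6 and 10 uM PI; scan at 488 nm; report % positive cells.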

Compound	activity change, negative = inhibition
O=C(NC1CC1)c1ccc(Cn2c(SCc3cccc(F)c3)nc3cccnc32)cc1	inactive: -4.42%
O=C(Nc1ccc(Cl)cc1)C1CCN(c2nc3ccccc3nc2C(F)(F)F)CC1	inactive: 5.72%
O=C(NCC(c1cccnc1)N1CCc2ccccc2C1)c1ccc(F)c(F)c1 (stereo unspecified)	inactive: 3.57%
COc1ccccc1N1CCN(C(=O)c2ccc(CS(=O)c3ccccc3C)o2)CC1 (stereo unspecified)	inactive: -16.8%
COc1ccc(CCN2C(=O)c3oc4cc(C)cc(C)c4c(=O)c3C2c2ccc(F)cc2)cc1OC (stereo unspecified)	inactive: 2.47%
CCS(=O)(=O)N1CCc2cc(C(=O)NCc3ccc(OC)cc3)ccc21	inactive: -0.0427%
Cn1cc(S(=O)(=O)c2cccc(Cl)c2)c(=O)c2cc(F)c(N3CCCCCC3)cc21	inactive: -4.97%
CCC(CC)C(=O)Nc1ccc(OCc2cc(=O)n3c4c(sc3n2)CCCC4)cc1	inactive: -5.52%
CCOc1ccc(NC(=O)c2ccc3c(SCC(=O)O)c4c(nc3c2)CCCC4)cc1	inactive: -1.13%
Cc1ccc(C(=O)N2CCc3cc(CNS(=O)(=O)c4ccc(Cl)s4)ccc32)cc1	inactive: -27.6%
Cn1cc(S(=O)(=O)c2ccc(Cl)cc2)c(=O)c2cc(F)c(N3CCCCCC3)cc21	inactive: 0%
O=C(CN1CCN(S(=O)(=O)c2cc(Cl)ccc2Cl)CC1)Nc1cccc(F)c1	inactive: -4.08%
CCOc1ccc(C2CC(=O)n3nc(-c4ccc(C)cc4)nc3S2)cc1OC (stereo unspecified)	inactive: -10.6%
Fc1ccc(-c2nc(Nc3ccc(F)c(Cl)c3)nc3c2COc2ccccc2-3)cc1	inactive: 2.52%
CC(C(=O)Nc1cccc(C#N)c1)n1nc(-c2ccccc2)c2c(c1=O)CCCC2 (stereo unspecified)	inactive: -6.4%
CCOC(=O)C1CCCN(C(=O)c2ccc3c(c2)N(Cc2ccccc2)C(=O)c2ccccc2S3(=O)=O)C1 (stereo unspecified)	inactive: -5.48%
CC1=C(C(=O)Nc2ccc(C)cc2C)C(c2ccccc2[N+](=O)[O-])n2ncc(C(=O)Nc3ccccc3)c2N1 (stereo unspecified)	inactive: 1.67%
O=C(Nc1ccc2nc3n(c(=O)c2c1)CCCCC3)c1cccc(C(F)(F)F)c1	inactive: -5.06%
O=C(CCC1N=C2c3ccccc3N=C(SCC(=O)Nc3ccc(F)cc3)N2C1=O)NCc1ccco1 (stereo unspecified)	inactive: -18%
Cc1ccc(N(Cc2cccs2)C(=O)c2ccco2)cc1	inactive: 1.82%
Nc1nn(-c2ccccc2)nc1C(=O)OCc1c(F)cccc1Cl	inactive: 9.01%
CC(C)N(C(=O)Cn1cc(S(=O)(=O)Cc2ccc(Cl)cc2)c2ccccc21)C(C)C	inactive: -22.1%
COc1ccc(-n2c(SCC(=O)NCc3ccccc3)nc3c([nH]c4ccccc43)c2=O)cc1	inactive: -12.6%
COc1ccc(NC(=O)CC2Nc3ccccc3NC2=O)cc1 (stereo unspecified)	inactive: 3.82%
COc1ccc(Nc2nn(-c3ccc(OC(F)(F)F)cc3)nc2C(C)=O)cc1	inactive: 0.291%
Cc1cc(C(=O)NCc2ccccc2)c2c(C)nn(-c3cccc(F)c3)c2n1	inactive: 2.8%
